From PubChem BioAssay AID624296 (National Center for Advancing Translational Sciences (NCATS), 2012)
Screen size: about 350,000 compounds; about 9,900 (2.8%) were called active. Inconclusive means that the source gave no clear call. Such entries were picked first, then a sample of the others. Calls follow the shape of the dose curve; as a rule, active = well fitted activation curve with a large enough effect; inconclusive = small, poorly fitted or top-dose-only effect; inactive = no such curve, though single readings can be large or run the other way. No potency is given beside an inconclusive call; the fits are too rough.

Test: A quantitative high throughput screen for small molecules that induce DNA re-replication in MCF 10a normal breast cells. Also: nearly all actives have a fitted effect of over 50% in size. As to activity, positive = re-replication: % of control where 0% means no effect.
Conditions: MCF 10A DNA re-replication, Hoechst nuclear intensity, 48 h; activity, positive = re-replication: at 46.1 µM (top of the series)
Potency is read from the fitted curve at half-maximal effect; tags tell the direction and shape of the fitted curve.

SMILES | Potency | activity, positive = re-replication
C/C(=N\NC(=O)CSc1nc(C)cc(C)n1)c1cccs1 | inactive | –
CCC(C)c1ccccc1NC(=O)Cc1coc2cc3c(cc12)CCC3 (stereo not given) | inconclusive [activator, single point] | –
COc1ccc(NC(=O)c2cc(-c3ccccc3OC)on2)cc1 | inconclusive [activator, full curve, poor fit] | –
CC12CCC(=O)N1C(C(=O)Nc1ccc(F)c(Cl)c1)CS2 (stereo not given) | inconclusive [activator, single point] | –
CCCCN(C(=O)c1cccc2c(=O)c(C)c(-c3ccccc3)oc12)c1ccccc1 | inconclusive [activator, single point] | –
CCN1/C(=C/c2ccc3cc(C)ccc3[n+]2CC)Sc2cc(C)c(C)cc21 | – | inactive: -2.26% [at 9.22 µM]
Cc1c(/C=N\NC(=O)C2COc3ccc(C(C)(C)C)cc3O2)c2ccccc2n1C (stereo not given) | inconclusive [activator, partial curve, poor fit] | –
COc1ccc2nc(N3C(=O)C(O)=C(C(=O)c4ccco4)C3c3ccc(C)o3)sc2c1 (stereo not given) | inconclusive [activator, single point] | –
O=C(c1cnsn1)N1CCC(CO)(Cc2ccc(Cl)cc2)CC1 | inactive | –
Cc1ccn2cc(-c3cc4ccccc4oc3=O)nc2c1 | inactive | –
Cc1ccc(C(=O)/C=C2\NCC(C)NC2=O)cc1 (stereo not given) | inactive | –
Cc1ccc2ccccc2c1CSc1nc(N)nc2c1ncn2CC(C)C | inactive | –
C/C=C/c1ccc(OCC(=O)Nc2ccc(C(N)=O)cc2)c(OC)c1 | inconclusive [activator, partial curve, poor fit] | –
CC(C)=C1C2CCC1C1C(=O)N(NC(=O)COc3ccc(Cl)c(C)c3)C(=O)C21 (stereo not given) | inactive | –
CCOC(=O)/C=C1\SCC(=O)N1CC(=O)Nc1ccc2c(c1)CCC2 | active: 9.2 µM | –
Cc1noc(/C=C/N(C)C)c1S(=O)(=O)N1CCCC(C(=O)NCc2ccc(Cl)cc2)C1 (stereo not given) | inconclusive [activator, single point] | –
O=[N+]([O-])c1ccc2c3n([n+]([O-])c2c1)CCN=C3c1ccc(Cl)cc1 | inconclusive [activator, single point] | –
COc1ccc(OC)c(CN2CCN(C(=O)c3ccc(S(=O)(=O)Nc4ccccc4F)cc3)CC2)c1 | inactive | –
COc1cccc(OCCOCC(O)CN2CCN(Cc3ccc(Cl)cc3)CC2)c1 (stereo not given) | inconclusive [activator, single point] | –
Cc1cc(Sc2nnc(N)s2)c2ccccc2n1 | inconclusive [activator, single point] | –
c1ccc(CN2CCN(c3ncnc4c3[nH]c3ccccc34)CC2)cc1 | active: 20.6 µM | –
Cc1cc(-c2onc3ccc(Cl)cc23)ccc1O | inconclusive [activator, single point] | –
Cc1cc(-n2c(C)cc(C(=O)COc3ccc(Cl)cc3C(N)=O)c2C)no1 | inconclusive [activator, single point] | –
C#CCOCCOCCOCCNc1nc(N2CCN(C(=O)[C@H](CCCCN)n3cc([C@@H](N)CO)nn3)CC2)nc(N2CCN(C(=O)[C@H](CCCCN)n3cc([C@@H](N)CC(C)C)nn3)CC2)n1 | inactive | –

SMILES | Potency | activity, positive = re-replication
O=C1OC(/C(=C\Nc2cc(Cl)ccc2O)[N+](=O)[O-])c2ccccc21 (stereo not given) | active: 14.6 µM | –
CN1CCN(S(=O)(=O)c2cccc(C(=O)Nc3ccc(Br)cc3Br)c2)CC1 | inconclusive [activator, single point] | –
C=CCN(CC=C)S(=O)(=O)c1ccc(NC(=S)NC(=O)c2ccc(-c3ccccc3)cc2)cc1 | inactive | –
CCc1cc2c(=O)c(-c3cscn3)coc2c(CN(C)C)c1O | active: 10.3 µM | –
O=C1c2[nH]nc(-c3ccccc3O)c2C(c2ccccc2F)N1Cc1ccco1 (stereo not given) | inconclusive [activator, partial curve, poor fit] | –
CCC(=O)Nc1ccc(C(=O)OCc2ccc(Cl)c(Cl)c2)cc1 | inconclusive [activator, full curve, poor fit] | –
COc1ccc(-c2cc(C(F)F)n3ncc(C(=O)Nc4cc(C)on4)c3n2)cc1 | inconclusive [activator, single point] | –
CCCN1CCN(CC(=O)Nc2nncs2)CC1 | inactive | –
CC(NCC(=O)NCC(=O)Nc1ccc(F)cc1)c1cccc(C(F)(F)F)c1 (stereo not given) | inconclusive [activator, single point] | –
CN(C)c1ccc(Nc2nc(N)c([N+](=O)[O-])c(N3CCOCC3)n2)cc1 | inconclusive [activator, single point] | –
CC(=O)c1cccc(CN2CCC(n3nccc3NC(=O)CCc3ccccc3)CC2)c1 | inactive | –
CC1(C)CC(=O)C=C(Nc2ccc(Cl)c(Br)c2)C1 | inconclusive [activator, partial curve, poor fit] | –
Cc1ccc(S(=O)(=O)N2CCN(C(=O)C3CCN(c4ncnc5sc(C)c(C)c45)CC3)CC2)c(C)c1 | inactive | –
COc1ccc(C(=O)Nc2cc(C)c(NC(=O)c3ccccc3OC)cn2)cc1 | inconclusive [activator, partial curve] | –
C/C(Cn1nnc2ccccc21)=N\NC(=O)c1cccc(Br)c1 | inactive | –
CCN1C(=NCc2ccco2)N[C@@H](c2cccc(F)c2)C(C(=O)OC)=C1C | inactive | –
COc1cc(C2C3=C(CC(C)(C)CC3=O)OC(N)=C2[N+](=O)[O-])ccc1O (stereo not given) | inconclusive [activator, single point] | –
Cc1ccsc1C(=O)N1CCCC(N(C)Cc2ccccc2)C1 (stereo not given) | inactive | –
O=C(OCC(=O)N1CCCCC1)c1cc(=O)[nH]c2ccccc12 | inactive | –
Cc1[nH]c2ccc(-c3nnc(SCC(=O)NCc4ccco4)n3Cc3ccccc3)cc2c1C | inconclusive [activator, single point] | –
c1ccc(-c2nc3ccccc3[nH]2)nc1 | inactive | –
Cc1cccc(N2CCN(C(=O)c3c(-c4ccccc4)noc3C)CC2)c1C | active: 3.66 µM | –
O=C(O)c1cc2n(n1)C(C(F)(F)F)CC(c1ccco1)N2 (stereo not given) | inconclusive [activator, single point] | –
CCn1ccnc1CN1CCCC(C(=O)c2ccc3cc(OC)ccc3c2)C1 (stereo not given) | inconclusive [activator, single point] | –

SMILES | Potency | activity, positive = re-replication
O=C(NC(=S)NCCc1ccccc1)c1cccc(Cl)c1 | inconclusive [activator, full curve, poor fit] | –
O=C(NCCO)c1cccc(Nc2nc(-c3ccccc3)c3cc(Cl)ccc3n2)c1 | inconclusive [activator, full curve, poor fit] | –
CC1(C)C(=O)Nc2ccccc2N1C(=O)COC(=O)c1ccc([N+](=O)[O-])o1 | inconclusive [activator, partial curve, poor fit] | –
COc1ccc2[nH]c(CN3CCN(CC(C)C)C(CCO)C3)c(C)c2c1 (stereo not given) | inactive | –
O=[N+]([O-])c1ccc(C(O)C23CN4CN(CN(C4)C2)C3)cc1 (stereo not given) | inconclusive [activator, partial curve, poor fit] | –
CCc1cccc2c1NC(=O)[C@]21[C@@H]2C(=O)N(Cc3ccccc3)C(=O)[C@@H]2[C@@H]2CCCN21 | inconclusive [activator, partial curve, poor fit] | –
CCOc1ccc(CCNC(=O)CCc2c(C)nc3ncnn3c2C)cc1OCC | inactive | –
COc1ccc(CNC(=O)C2CCC(=O)N2C(C)C)c(OC)c1 (stereo not given) | inconclusive [activator, single point] | –
COc1ccc(NC(=O)c2cc(Br)ccc2Cl)c(OC)c1 | inactive | –
CCOc1cc(NS(=O)(=O)c2ccc(NC(C)=O)cc2)c(OCC)cc1NC(=O)C(C)C | inconclusive [activator, partial curve, poor fit] | –
Cc1ccc(S(=O)(=O)N2CCOCC2)cc1C(=O)Nc1nc2ccccc2[nH]1 | inconclusive [activator, partial curve, poor fit] | –
O=C(COC(=O)c1cc2ccccc2cc1O)Nc1cccnc1Cl | inconclusive [activator, single point] | –
CC(C)=C1C2CCC1C1C(=O)N(c3nc(-c4ccc(F)cc4)c(C)s3)C(=O)C21 (stereo not given) | inconclusive [activator, single point] | –
O=C(NNC(=S)NC1CC2C=CC1C2)c1ccncc1 (stereo not given) | inconclusive [activator, full curve, poor fit] | –
O=C(N/N=C/c1ccco1)c1cc(-c2ccc(Cl)s2)[nH]n1 | inconclusive [activator, single point] | –
Cc1noc(C)c1S(=O)(=O)N(Cc1ccccc1)C(C)C | inactive | –
O=C(Nc1nc2c(Br)cc(Br)cc2c(=O)s1)C1CCC1 | active: 5.17 µM | –
COc1ccc(-c2csc(NC(=O)CN3C(=O)C4CCCCC4C3=O)n2)cc1OC (stereo not given) | inactive | –
CC1(c2ccccc2)CC(C)(C)N(C(=O)C2CCCO2)c2ccccc21 (stereo not given) | inconclusive [activator, single point] | –
Cc1ccc(O)c(NC(=S)NC(=O)/C=C/c2ccco2)c1 | inactive | –
CNC[C@H](O)c1cccc(O)c1 | inconclusive [activator, single point] | –
COc1ccc(NC(C)=O)cc1NC(=O)CN1CCN(C2c3ccccc3-c3ccccc32)CC1 | active: 20.6 µM | –
